# Results taken from PubChem BioAssay AID504444 (National Center for Advancing Translational Sciences (NCATS), 2011).
# Hit rate of the full screen: of about 360,000 compounds, about 7,500 (2.1%) were called active. Inconclusive results (about 20%) are left out. Calls come from the whole dose curve; as a rule, active = well fitted inhibition curve with a large enough effect; inconclusive = small, poorly fitted or top-dose-only effect, or effect the other way; inactive = flat fitted curve, though single readings scatter. The list shows a part of the results, in another mix than the full data.
# Test: Nrf2 qHTS screen for inhibitors; note: nearly all actives have a fitted effect of over 60% in size
# Settings: A549 ARE-Fluc reporter, luciferase luminescence, 18-24 h; series mostly up to 46 µM; activity change, negative = inhibition: at the top concentration
# Excerpt: NIH Molecular Libraries Probe Production Network [MLPCN]
# NIH Chemical Genomics Center [NCGC]
# Assay Provider: Shyam Biswal, Johns Hopkins University
# Nrf2 is a transcription factor that maintains cellular redox homoestasis and protects cells from xenobiotics. Nrf2 binds to the antioxidant response element (ARE) to induce gene expression of a broad spectrum of genes that encode for antioxidants. […] Finding a small molecule that act as an inhibitor of Nrf2 function would represent a novel therapeutic target that could lead to improvement in survival of patients undergoing chemo- and/or radio- therapy.
# This is the Nrf2 activity measured in the luminescent read.
# 1. Shibata, T., et al., Genetic Alteration of Keap1 Confers Constitutive Nrf2 Activation and Resistance to Chemotherapy in Gallbladder Cancer. Gastroenterology, 2008.
# 2. Sjoblom, T., et al., The consensus coding sequences of human breast and colorectal cancers. Science, 2006. 314(5797): p. 268-74.
# NCGC Assay Protocol Summary:
# A concentration-response assay was performed with A549 ARE_Fluc cells which are suspended in 5% FBS OPTI-MEM. Five uL were dispensed into 1536-well white TC-treated plate using the Kalypsys dispenser to achieve a density of 5000 cells/well in all columns except column 1. The plate is incubated at 37deg C at 5% CO2 for 2 hours before 23 nL of compounds are added with the Kalypsys pin tool equipped with a 1,536-pin array containing 10-nL slotted pins (FP1S10, 0.457-mm diameter, 50.8 mm long; V&P Scientific). The control compounds Budesonide and Staurosporine are both added at a concentration of 2mM and Budesonide is also added as a 1:10 titration, starting at 200uM, to achieve dose-response. After an 18-24 hour incubation at 37deg C at 5% CO2, 5ul of medium is added to column 1. Afterwards 1ul of 5x of CellTiter-Fluor (Promega) is added to every well. The plate is then incubated at 37deg C at 5% CO2 for 30 minutes before they are read on the ViewLux (Perkin Elmer) for a fluorescent read Ex=405(10)/Em=525(10) for a 3 second exposure, 2x binning, and high gain. Then 3 uL of 3x BugLite is dispensed into all wells and the plate is incubated at ambient room temperature for 15 minutes. Afterwards another ViewLux read is performed using the clear filter to get a luminescent read with the settings of 40 second exposure, 2x binning, and high gain. Cytotoxicity is assessed through the first fluorescent read and then biochemical activity against Nrf2 is measured in the luminescent read.
# % is set by controls: 0 for no effect and ±100 for the full control effect; potency is the fitted concentration of half-maximal effect.
SMILES,"activity change, negative = inhibition",Potency
CC1=CC(C)(C)NC(=S)N1c1ccccc1C,inactive: -1.61%,
COc1ccc(NC(=O)N(C)C[C@H]2Oc3c(NS(=O)(=O)c4cccs4)cccc3C(=O)N([C@@H](C)CO)C[C@@H]2C)cc1,inactive: 20%,
COCCNC(=O)CCc1c(C)nc2c(c(C)nn2-c2ccc(C)cc2)c1C,inactive: -17.5%,
C[C@@H]1CCC[C@]2(O[C@@H](CCO)C[C@@H](O)[C@@H]2O)O1,inactive: 18.4%,
CC(C)(C)OC(=O)C[C@@H]1C/C=C\C[C@H](CC(=O)N[C@H](CO)Cc2ccccc2)C(=O)N[C@@H](Cc2ccccc2)COC1=O,inactive: 0.116%,
Cc1cc(NC(=O)CCCN2C(=O)/C(=C\c3cccs3)SC2=S)no1,inactive: 21%,
CCCCN(CCCC)CCNC(=O)c1cn(C)c2ccc(S(=O)(=O)N3CCCC3)cc2c1=O,inactive: -17.9%,
COc1cc(C(CCN2CCN(c3ccccc3)CC2)c2c(OC)cc(OC)c3c(C)cc(=O)oc23)cc(OC)c1OC (configuration not stated),inactive: -13.3%,
COc1ccc(C2=NS(=O)(=O)N(C)C(C(=O)N(C)Cc3ccccc3)=C2)cc1OC,inactive: 18.5%,
C=C1CCN(C(C(=O)OC)C(C)C)S(=O)(=O)c2ccc(F)cc21 (configuration not stated),inactive: -0.502%,
CC(C)(C)OC(=O)N1CCC(c2c(C(=O)N3CCN(C(=O)c4ccco4)CC3)cnn2-c2cccc(Cl)c2)CC1,inactive: 9.42%,
COC(=O)[C@@]12CCCCN1[C@H](c1ccc(-c3cccc(Cl)c3)cc1)[C@@H]1C(=O)N(C)C(=O)[C@@H]12,inactive: -19.3%,
Cc1cc(C(=O)N2CCN(c3cccc(Cl)c3)CC2)c2c(C)nn(-c3ccccc3Cl)c2n1,,active: 18.4 µM
O=S(=O)(c1ccc2ccccc2c1)N1CCN(S(=O)(=O)c2c(F)cccc2F)CC1,inactive: -4.78%,
O=C(CN1CCN(Cc2ccccc2)CC1)N/N=C/C=C/c1ccco1,inactive: 9.74%,
COc1ccc(OC)c(-c2nnc3n2N=C(c2ccc(OC)c(OC)c2)CS3)c1,inactive: -14.8%,
Cc1nn(-c2ccccc2)nc1C(=O)c1c(C)[nH]n(-c2ccccc2)c1=O,,active: 20.6 µM
COc1cccc(CNc2nc(Cl)nc3nc[nH]c23)c1,inactive: -19.8%,
O=C(CCCn1ncn2c(cc3occc32)c1=O)NCc1ccccc1F,inactive: -7.28%,
CC[C@]12c3[nH]c4ccc(Cl)cc4c3CCN1C(=O)[C@@H](CC(=O)NCC13CC4CC(CC(C4)C1)C3)C[C@@H]2C(=O)N1CCN(C(=O)C2CC2)CC1,,active: 23.1 µM
CCOc1ccccc1C(=O)NCC(=O)N1CCN(Cc2ccc3c(c2)OCO3)CC1,,active: 4.61 µM

SMILES,"activity change, negative = inhibition",Potency
COc1ccc(OC)c(CNC(=O)CCC(=O)N2Cc3ccccc3Oc3ncccc32)c1,inactive: -7.33%,
CCCOc1ccc(CNC(=O)Cn2c(=O)oc3ccccc32)cc1,inactive: 6.72%,
CCC(O)C1CCN(C(=O)c2cc(COc3ccc4ncccc4c3)on2)CC1 (configuration not stated),,active: 1.84 µM
C[C@H](NC(=O)[C@@H]1Cc2ccccc2CN1)C(=O)NC1CCCC1,inactive: 2.83%,
CCOC(=O)Nc1ccc2c(CNC(C)c3ccccc3OC)cc(=O)oc2c1 (configuration not stated),,active: 13 µM
CC(C)c1ccc(NC(=O)CNC(=O)Cn2ccc3ccccc3c2=O)cc1,inactive: -12.3% [at 9.27 µM],
CC(=O)N1CCc2cc(S(=O)(=O)CCC(=O)N3CCN(c4cc(C)ccc4C)CC3)ccc21,,active: 14.6 µM
Cc1onc(-c2c(Cl)cccc2Cl)c1C(=O)NC1C(=O)N2C1SC(C)(C)C2C(=O)O (configuration not stated),inactive: -1.12%,
CC1CCN(S(=O)(=O)c2ccc3nc(N4CCN(c5ccccc5)CC4)ccc3c2)CC1,inactive: 7.12%,
Cc1ccc(S(=O)(=O)N2CCN(CC(=O)NC3CCCc4ccccc43)CC2)cc1C (configuration not stated),inactive: -16.6%,
COc1cc2c(cc1OC)[C@@H]1Cc3ccc(OC)c(OC)c3CN1CC2,inactive: 0.684%,
Cc1c(C(=O)Nc2ccccc2F)sc2nc3n(c(=O)c12)CCC3,inactive: -10.5%,
Cc1ccc(Cn2ncc3c(N4CCN(c5ccccc5C)CC4)ncnc32)cc1,,active: 20.6 µM
CCN(Cc1ccccc1)C(=O)Cn1c(=O)cc(C)c2c(C)nn(-c3cccc(F)c3)c21,,active: 20.6 µM
CCOC(=O)C(=Cc1ccc(Br)cc1)C(=O)OCC,,active: 18.4 µM
Cc1ccc(C)c(NC(=O)CCn2cnnn2)c1,inactive: 8.2%,
C/C=C(\C)C(=O)OC1CC(C)(C)C[C@H]2C3=CC[C@@H]4[C@@]5(C)CCC(O[C@@H]6O[C@@H](C(=O)O)[C@@H](O)C(O[C@@H]7OC[C@H](O)[C@@H](O)[C@@H]7O[C@@H]7OC(CO)C(O)[C@@H](O)[C@@H]7O)C6O[C@@H]6OC(CO)C(O)C(O)C6O)[C@@](C)(CO)[C@@H]5CC[C@]4(C)[C@]3(C)CC(O)[C@@]12CO (some centres not stated),inactive: -5.38%,
Cc1cc2c(cc1S(=O)(=O)CCC(=O)NCc1ccccc1)OCC(=O)N2,inactive: -29.3%,
COC(=O)c1cc(C)nc2c1C(=O)C(=O)C=C2N1CCOCC1,,active: 16.4 µM
CC(=O)c1cccc(S(=O)(=O)N2CCN(c3ccccc3F)CC2)c1,inactive: 0.153%,
C=CCn1c(=O)/c(=C/c2ccc(Cl)cc2)s/c1=C(\C#N)c1nnc2n1CCCCC2,inactive: 0.501%,
